Experimental data from PubChem BioAssay (NCATS).
The inconclusive results got no clear call from the source; some entries with a clear call stand among them for comparison. Where the call is inconclusive, the potency comes from a doubtful curve fit. The source made the active and inactive calls. The call rests on the fitted dose curve; in most records, active means well fitted activation curve with a large enough effect; inconclusive means small, poorly fitted or top-dose-only effect; inactive means no such curve, though single readings can be large or run the other way.

Each compound was assayed against Cellular tumor antigen p53 (Homo sapiens) (UniProt P04637) (assay: Primary qHTS for small molecule compounds that upregulate eGFP-tagged delta133p53alpha (in N-terminal) cells. (AID 2060322;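 further: cells pre-induced with doxycycline then dosed without doxycycline; nearly all actives have a fitted effect of over 75% in size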;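 on activation: series mostly up to about 56 µM; 0% = DMSO vehicle and 100% = reference activator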)). Settings: NCI-H358 eGFP-delta133p53alpha fluorescence, 24 h; activation: active compounds read high.
Chain of UniProt P04637 (P04637 whole entry, looked up): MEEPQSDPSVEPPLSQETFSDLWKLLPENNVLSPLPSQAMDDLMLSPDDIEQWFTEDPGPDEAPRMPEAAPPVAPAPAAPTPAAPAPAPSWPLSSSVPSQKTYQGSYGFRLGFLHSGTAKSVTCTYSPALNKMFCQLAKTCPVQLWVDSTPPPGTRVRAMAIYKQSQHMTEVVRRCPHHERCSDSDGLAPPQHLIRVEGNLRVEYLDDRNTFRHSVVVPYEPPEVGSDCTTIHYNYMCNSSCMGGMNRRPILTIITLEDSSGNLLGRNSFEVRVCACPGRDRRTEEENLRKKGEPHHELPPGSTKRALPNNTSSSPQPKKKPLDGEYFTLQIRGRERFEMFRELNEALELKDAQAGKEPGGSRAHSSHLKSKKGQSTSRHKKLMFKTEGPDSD
How it was run: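 NCI-H358 cells pre-induced 24 h with 10 ng/ml doxycycline for eGFP-delta133p53alpha, plated dox-free and exposed 24 h at 37C to titrated compounds. Fixed, Hoechst-stained; gated GFP peak intensity by laser scanning cytometry, normalized to DMSO (0%) and 57.5 uM 5-azacytidine (100%).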
Potency means the concentration at half of the fitted maximal effect; tags describe the fitted curve by direction and shape.

| Structure (SMILES) | activation | Potency |
| --- | --- | --- |
| CCCCC(O)/C=C(C)/C=C/C=C/C(=O)N1CCCC1=O (stereo not drawn) | inactive: 13.4% |  |
| NC(=O)COCCN1CCN(C(c2ccccc2)c2ccc(Cl)cc2)CC1 (stereo not drawn) |  | inconclusive: 17.4 µM [activator, single point] |
| CN(c1ccccc1CNc1nc(Nc2ccc3c(c2)CC(=O)N3)ncc1C(F)(F)F)S(C)(=O)=O |  | inconclusive: 33.8 µM [activator, single point] |
